Results published in PMC10870044, “The Interplay Between HIF‐1α and EZH2 in Lung Cancer and Dual‐Targeted Drug Therapy” (Advanced Science, 2023).

System: EZH2
Settings: A549 and H460 cell lines; EZH2 protein expression not affected

COc1cc2c(cc1O)CC[C@@H]1[C@@H]2CC[C@]2(C)[C@@H](O)CC[C@@H]12 [2‐ME2, 2‐methoxy estradiol]
level of the EZH2 substrate H3K27me3: increase in the level of the EZH2 substrate H3K27me3
